# Assay results reported in the supplement of paper PMC12217912.
# The other results are listed elsewhere or left out. Sequences were assembled here from the parent chain. Values near 0.05 are background.
# B1: TEV protease; numbered along this chain (parent)
# chain: MGESLFKGPRDYNPISSSICHLTNESDGHTTSLYGIGFGPFIITNKHLFRRNNGTLVVQSLHGVFKVKDTTTLQQHLVDGRDMIIIRMPKDFPPFPQKLKFREPQREERICLVTTNFQTKSMSSMVSDTSCTFPSGDGIFWKHWIQTKDGQCGSPLVSTRDGFIVGIHSASNFTNTNNYFTSVPKNFMELLTNQEAQQWVSGWRLNADSVLWGGHKVFMVKPEEPFQPVKEATQL
# Variants of: B1
# Test: raw area under fraction-flipped curve 0-4 h after induction (AUC4h, not background-subtracted), DNA-recorder readout of cleavage of the substrate (dimensionless); higher = more cleavage of the substrate by the protease variant
# Details: temperature: 34 °C; time window: 0-4 h after rhamnose induction
# Experimental: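 In vivo DNA recorder in E. coli TOP10(DE3) ΔrhaA at 34 °C. Each TEVp single-site mutant (parent TEVp 0) is paired with a single-site variant of the 7-mer TEVs (canonical ENLYFQ|S). The substrate sits between flexible linkers in a Bxb1-sfGFP-TEVs-SsrA fusion, so cleavage stabilises Bxb1 and speeds flipping of a recombination array, read by NGS. The value is the raw area under the fraction-flipped curve over 0-4 h after rhamnose induction (AUC4h), with ≥20 reads per time point. It is not background-subtracted; inactive controls average about 0.047.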
# 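Note: Bxb1 expression induced with 0.2% (w/v) L-rhamnose at OD600 near 0.5, cultures sampled hourly, flipped fraction per protease–substrate barcode pair counted by paired-end Illumina sequencing.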
Variant,area with substrate DNLYFQS,area with substrate GNLYFQS,area with substrate HNLYFQS,area with substrate INLYFQS,area with substrate KNLYFQS,area with substrate LNLYFQS,area with substrate MNLYFQS,area with substrate PNLYFQS,area with substrate QNLYFQS,area with substrate TNLYFQS,area with substrate WNLYFQS,area with substrate FNLYFQS,area with substrate SNLYFQS,area with substrate YNLYFQS,area with substrate NNLYFQS,area with substrate RNLYFQS,area with substrate VNLYFQS
M219H,0.0538,0.0479,0.0615,0.0607,0.0682,0.0671,0.0616,0.0672,0.0506,0.0586,0.0539,–,–,–,–,–,–
F173G,0.07,–,0.0502,0.0639,0.069,–,0.0668,0.0643,–,–,0.0742,–,–,–,–,–,–
K68N,0.0182,–,0.0653,0.0617,–,0.0613,–,0.0689,0.0983,–,0.0593,0.0512,0.0037,0.0586,–,–,–
L205R,0.0645,–,–,0.0655,–,0.0475,–,–,–,0.0457,0.0586,–,0.0589,0.0474,0.0582,0.0412,–
F140D,0.0822,–,0.0614,–,–,0.0652,0.0725,–,–,0.0463,0.0602,0.0604,0.0537,0.0721,–,–,0.0702
Q227Y,0.0842,0.0512,0.0653,–,0.0878,0.0783,0.101,0.0485,–,0.0646,0.0649,–,–,0.0651,–,–,–
I145H,0.0952,–,0.0609,–,–,–,–,–,0.0548,0.0576,0.0644,–,–,0.0686,–,–,0.0667
G63V,0.0679,0.0612,0.0602,0.0762,0.0733,0.0749,–,–,0.0542,0.0609,0.07,0.0556,0.0651,0.051,0.0615,–,–
S130L,0.0672,0.0609,0.0659,0.0625,0.0584,0.062,–,–,–,0.0599,0.0481,0.0533,0.0441,0.0652,0.0451,0.0504,0.0482
H215N,0.0512,–,0.0525,0.0494,–,0.0517,–,0.0492,0.0579,0.0634,0.0597,–,0.0542,0.056,0.0504,–,–
T55H,0.0675,–,0.0557,0.0756,–,–,0.0404,–,–,0.0511,0.0642,–,–,0.0739,–,–,0.0834
S169Q,0.0562,0.0557,0.0575,0.0676,0.07,0.0646,0.0704,0.0578,–,0.0581,0.0566,0.0555,0.0662,0.065,0.0499,–,0.0525
H143T,0.0724,0.0615,0.0571,0.0645,0.0705,–,0.0525,0.0712,–,–,0.0663,0.0405,–,0.0546,–,0.0705,–
K46D,0.0722,0.0591,0.0533,–,0.0641,0.0611,0.047,0.0717,0.0491,0.0618,0.0558,0.0408,0.0554,0.0611,0.0307,–,0.062
